PubChem BioAssay AID2101 (National Center for Advancing Translational Sciences (NCATS), 2009)
In all, about 330,000 compounds went through this assay and about 300 (0.091%) were called active. Inconclusive means that the source gave no clear call. Such entries were picked first, then a sample of the others. Calls come from the whole dose curve; as a rule, active = well fitted inhibition curve with a large enough effect; inconclusive = small, poorly fitted or top-dose-only effect, or effect the other way, or another doubt; inactive = no such curve, though single readings can be large or run the other way. Potencies of inconclusive entries are left out as doubtful fits.

Target: Lysosomal acid glucosylceramidase (Homo sapiens) (UniProt P04062)
Experiment: qHTS Assay for Inhibitors and Activators of N370S glucocerebrosidase as a Potential Chaperone Treatment of Gaucher Disease;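 for activity change, negative = inhibition: 0% = full enzyme activity and -100% = no enzyme basal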
Settings: N370S GC spleen homogenate, 4MU-glucoside fluorescence; activity change, negative = inhibition: at 59.4 µM (top of the series) unless noted
Potency is the fitted concentration of half-maximal effect.

Structure (SMILES)	Potency	activity change, negative = inhibition
O=S(=O)(NC1c2cccc3cccc(c23)C1N1CCNCC1)c1ccccc1 (configuration not stated)	inconclusive [inhibitor, partial curve]	
CSc1nc2nc(C(F)(F)F)cc(-c3ccccc3)n2n1		inactive: 22.9%
CCC1=Nc2cc(C(=O)NCCN3CCOCC3)ccc2Sc2ccc(Br)cc21	inconclusive [inhibitor, partial curve]	
CCOC(=O)c1c(NC(=O)c2ccc(Br)o2)sc(C)c1CC	inconclusive [activator, partial curve]	
CCC(=O)Nc1ccc2c(c1)C(=O)N(C1CCCCC1)C2=O		inactive: 6.03%
C/C=C(/C)C(=O)OC1C(OC(C)=O)[C@@]2(CO)C(O)C[C@@]3(C)C(=CCC4[C@@]5(C)CCC(OC6OC(C(=O)O)[C@@H](O[C@@H]7OC(CO)C(O)C(O)C7O)C(O)[C@H]6O[C@@H]6OC(CO)C(O)C(O)C6O)[C@](C)(CO)C5CC[C@@]43C)C2CC1(C)C (some centres not stated)	active: 15.8 µM	
CC(C)c1cccc2c([Si](C)(C)C)c3c(nc12)-c1cccc(=O)n1C3	inconclusive [activator, partial curve]	
N#Cc1nc(-c2ccccc2F)oc1N1CCCCC1	inconclusive [activator, single point]	
O=c1ccc(/C=C/c2ccccc2)nn1Cc1ccccc1Cl	inconclusive [activator, single point]	
COc1ccc2[nH]cc(CCNc3ccnc(-c4ccc(N(C)C)cc4)n3)c2c1	inconclusive [inhibitor, single point]	
COC(=O)c1cccc(NC(=O)/C=C/c2cccc([N+](=O)[O-])c2)c1	inconclusive [inhibitor, single point]	
O=C(C1=C(O)C(=O)N(c2ncccn2)C1c1ccc(Cl)cc1)c1ccco1 (configuration not stated)	inconclusive [inhibitor, partial curve, poor fit]	
O=C(/C=C/c1ccco1)N/C(=C\c1ccccc1)C(=O)NCCc1nc2ccccc2[nH]1	inconclusive [inhibitor, single point]	
CSCC[C@H](NC(=O)[C@@H](NC(=O)[C@H](CCC(=O)O)NC(=O)[C@H](CCSC)NC(=O)[C@H](CC(N)=O)NC(=O)[C@H](CCC(=O)O)NC(=O)[C@H](CC(N)=O)NC(=O)[C@H](CO)NC(=O)[C@H](C)N)[C@@H](C)O)C(=O)O		inactive: -4.84%
CC(Sc1nc(N)c2c3c(sc2n1)CSC(C)(C)C3)C(=O)Nc1ccccc1 (configuration not stated)	inconclusive [activator, partial curve]	
CC(C)(C)c1cc(NC(=O)COC(=O)c2nccnc2N)n(-c2ccccc2)n1	inconclusive [activator, single point]	
C=CCn1c2ccccc2c2nnc(SCC(=O)NC(C(=O)OC)C(C)C)nc21 (configuration not stated)		inactive: 8.53%
Cc1cc(SCC(=O)c2ccc3c(c2)OCO3)nc2ccccc12	inconclusive [activator, partial curve]	
O=S(=O)(c1ccccc1OC(F)(F)F)N1CCN(c2ccnc3cc(Cl)ccc23)CC1	inconclusive [inhibitor, single point]	
COc1ccc2cc3cc(C(=O)NC(C)C)oc3nc2c1	inconclusive [activator, partial curve]	
COc1cccc2sc(N(CCCN(C)C)C(=O)c3ccc(S(=O)(=O)N4CCc5ccccc5C4)cc3)nc12	inconclusive [inhibitor, partial curve]	
COc1cc(CNc2ccc(O)cc2)cc(Br)c1OCc1ccccc1	inconclusive [inhibitor, single point]	
COc1ccccc1CCNC(=O)c1cnn2c(C(F)F)cc(C)nc12	inconclusive [activator, partial curve]	

Structure (SMILES)	Potency	activity change, negative = inhibition
Cc1ccn2cc(-c3cnoc3C)nc2c1		inactive: -3.03%
Cc1nc2ccccn2c1C(=O)N=Nc1c(O)n(CCC(C)C)c2ccccc12	inconclusive [inhibitor, single point]	
O=C(N/N=C/c1ccncc1)c1nc(-c2ccccc2)n2c1CCCCC2		inactive: 10.2%
CCN(C(=O)Cn1nc(C)n2c(cc3cc(C)ccc32)c1=O)c1ccccc1	inconclusive [activator, single point]	
CCOc1cc(CNCCc2ccc(S(N)(=O)=O)cc2)ccc1OCc1ccccc1	active: 6.31 µM	
COC(=O)c1ccc(/C=N/Nc2nc3ccccc3[nH]2)cc1		inactive: -15.9%
N#CC1=C2SC=C(c3ccc(Br)cc3)N2CCCC1=O	inconclusive [activator, single point]	
Cc1nc(NC(=O)c2ccc(-c3cc4ccccc4oc3=O)cc2)ccc1Br	inconclusive [activator, single point]	
Cc1ccc(Nc2ncnc3ccccc23)cc1		inactive: -26.2%
Cc1c(CC(=O)NCCCC(=O)O)c(=O)oc2cc3c(cc12)CCC(C)(C)O3	inconclusive [activator, single point]	
Cc1[nH]nc2c1C(Cc1ccccc1)C(C#N)=C(N)O2 (configuration not stated)		inactive: 21.6%
CC(C)(C)OC(=O)N1CCC(C(=O)N[C@@H](Cc2ccccc2)C(=O)O)(c2ccccc2)CC1	inconclusive [inhibitor, single point]	
NS(=O)(=O)c1cccnc1Nc1cccc(C(F)(F)F)c1		inactive: 0.556%
Cc1cc2c(cc1S(=O)(=O)Nc1ccc(C(C)C)cc1)OCCN2C		inactive: 6.17%
O=C(c1ccco1)N1CCN(C(=S)Nc2ccccc2Cl)CC1	inconclusive [inhibitor, full curve, poor fit]	
COc1ccc(C(CCN2CCOCC2)c2c(OC)cc(OC)c3c2OC(=O)CC3c2ccc(OC)cc2)cc1 (configuration not stated)	inconclusive [inhibitor, single point]	
O=C(CSc1nc(Cc2ccccc2)nc2ccccc12)c1ccc2c(c1)OCCO2	inconclusive [activator, full curve]	
CC(/C=N/NC(=O)c1cccnc1)=C\c1ccccc1		inactive: 9.62%
COc1cccc(CN2CCC(C(=O)Nc3ccc(-c4cccc(C)c4)cc3)CC2)c1O	inconclusive [inhibitor, partial curve]	
COc1ccc(CNC(=O)CN2C(=O)CSc3ccc(S(=O)(=O)N4CCOCC4)cc32)c(OC)c1		inactive: -11.7%
C=CCOC(=O)N[C@@H](c1ccc(Br)cc1)C(C(C)=O)C(C)=O		inactive: -0.861%
CC(C)C(C)(C#N)NC(=O)CSc1nc2scc(-c3ccco3)c2c(=O)n1-c1ccccc1 (configuration not stated)	inconclusive [inhibitor, full curve]	
COc1cccc(C2CNC3(CCCC(C)C3)c3[nH]c4ccccc4c32)c1OC (configuration not stated)	inconclusive [inhibitor, full curve, poor fit]	

Structure (SMILES)	Potency	activity change, negative = inhibition
COc1ccc(/C=N/NC(=O)COc2ccccc2-c2ccccc2)cc1	inconclusive [activator, partial curve]	
CC1CN(C(=O)CCNC(=O)c2ccc(Br)cc2)CC(C)O1 (configuration not stated)	inconclusive [inhibitor, partial curve]	
Cc1ccc(C)c(NC(=S)NNC(=O)c2ccco2)c1		inactive: -4.8%
CCC(=O)N(CC)c1nc(-c2ccc(OC)cc2)cs1		inactive: -4.46%
O=C1/C(=C/c2ccco2)Oc2c1ccc(O)c2CN1CCCCC1	inconclusive [inhibitor, single point]	
Oc1cnn(-c2ccccc2)c1		inactive: 1.43%
CNc1ccc(C(=O)Oc2cc(O/N=[N+](\[O-])N(C)C)c([N+](=O)[O-])cc2[N+](=O)[O-])cc1		inactive: -6.83%
C=CCNCCCOc1ccc(Cl)cc1C(C)(C)C	inconclusive [inhibitor, partial curve]	
COC(=O)c1ccc(COc2ccc(C)cc2[N+](=O)[O-])o1		inactive: 7.82%
COc1cc2c(cc1O)CC[C@@H]1[C@@H]2CC[C@]2(C)[C@@H](O)CC[C@@H]12	inconclusive [inhibitor, single point]	
O=C(COc1ccccc1C(=O)c1cnn(-c2ccccc2)c1)Nc1ccccc1	inconclusive [activator, full curve]	
CCCc1nnc2c(N(C)S(=O)(=O)c3ccccc3)nc3ccccc3n12		inactive: 6.01%
CC(C)Cn1c(=O)c(C(=O)NCc2ccccn2)c(O)c2ccccc21	inconclusive [activator, partial curve]	
Cc1cc2nc3n(c2cc1C)CC1CC(C(=O)NCc2ccccc2)N(C)C31 (configuration not stated)		inactive: 1.95%
N#CCOc1ccc2oc(-c3ccco3)cc(=O)c2c1	inconclusive [inhibitor, single point]	
Cn1ccnc1/C(=N\NC(=O)c1ccccc1)c1cccc([N+](=O)[O-])c1	inconclusive [activator, partial curve]	
CCCCc1nc2c(c3c1C[C@H](C)OC3)CN(C(=O)NCCc1c[nH]c3ccccc13)CC2		inactive: -10.2% [at 12.8 µM]
Cc1ccc(NC(=O)Nc2ccc3c(c2)OCO3)cc1F		inactive: -0.399%
CCOC(=O)c1c(C)[nH]c(C(=O)CSc2nccc(C)n2)c1C	inconclusive [activator, partial curve]	
CC(=O)Oc1ccc2c(C)cc(=O)[nH]c2c1	inconclusive [activator, single point]	
Cc1ccc2cc(CN(c3ccccc3)S(=O)(=O)c3ccccc3)c(=O)[nH]c2c1	inconclusive [activator, partial curve]	
